Among all 310,000 compounds or so, about 2,200 (0.71%) showed an effect of 50% or more. Effects have a minus sign here. The list shows a part of the results.

The target in this experiment is human ether-à-go-go-related gene (hERG) potassium channel (human, UniProt Q12809). The experiment is described as follows: primary screen, population patch clamp on CHO cells stably expressing hERG.
Chain of human ether-à-go-go-related gene (hERG) potassium channel (Q12809 whole entry, looked up): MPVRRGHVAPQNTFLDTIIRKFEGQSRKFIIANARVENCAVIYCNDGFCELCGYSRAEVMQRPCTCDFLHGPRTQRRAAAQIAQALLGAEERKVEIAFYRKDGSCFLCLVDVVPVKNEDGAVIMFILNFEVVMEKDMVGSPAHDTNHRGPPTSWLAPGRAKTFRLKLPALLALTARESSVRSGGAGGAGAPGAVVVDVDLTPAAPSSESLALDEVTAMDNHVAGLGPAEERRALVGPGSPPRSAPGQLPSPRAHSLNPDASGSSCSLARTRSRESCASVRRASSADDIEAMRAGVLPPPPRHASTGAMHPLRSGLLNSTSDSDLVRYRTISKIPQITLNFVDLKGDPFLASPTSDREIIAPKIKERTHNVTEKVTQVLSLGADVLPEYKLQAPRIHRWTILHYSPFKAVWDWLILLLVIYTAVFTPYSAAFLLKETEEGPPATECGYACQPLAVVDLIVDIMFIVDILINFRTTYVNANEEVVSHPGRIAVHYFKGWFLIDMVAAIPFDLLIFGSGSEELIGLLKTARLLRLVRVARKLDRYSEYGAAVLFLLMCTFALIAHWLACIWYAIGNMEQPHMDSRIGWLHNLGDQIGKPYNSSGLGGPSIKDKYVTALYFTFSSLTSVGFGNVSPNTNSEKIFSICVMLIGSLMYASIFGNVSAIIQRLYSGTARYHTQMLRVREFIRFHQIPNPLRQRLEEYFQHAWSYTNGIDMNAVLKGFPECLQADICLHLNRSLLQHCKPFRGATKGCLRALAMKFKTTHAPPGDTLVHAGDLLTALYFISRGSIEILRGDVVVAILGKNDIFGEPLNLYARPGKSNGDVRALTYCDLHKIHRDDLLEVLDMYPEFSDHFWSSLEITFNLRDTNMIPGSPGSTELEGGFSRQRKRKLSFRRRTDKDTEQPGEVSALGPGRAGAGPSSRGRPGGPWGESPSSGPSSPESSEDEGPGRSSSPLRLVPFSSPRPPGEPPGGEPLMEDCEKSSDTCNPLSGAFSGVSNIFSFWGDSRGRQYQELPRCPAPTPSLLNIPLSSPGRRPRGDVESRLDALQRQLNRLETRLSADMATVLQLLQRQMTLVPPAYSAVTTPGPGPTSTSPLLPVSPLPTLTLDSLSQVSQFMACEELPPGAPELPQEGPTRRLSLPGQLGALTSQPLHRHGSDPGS
Take `CC1CCCN(C(=O)c2cc(-c3ccco3)nc3ccccc23)C1` (stereo not shown): the “hERG current change (%, negative = inhibition) at 1uM” value was 1.33%.
Consider `COc1cccc(CNc2ccc(C(=O)O)cc2)c1OCc1ccccc1`, for which the “hERG current change (%, negative = inhibition) at 1uM” value worked out at 4.32%.
Consider `CCOC(=O)C(NC(=O)NCc1cccc(C(F)(F)F)c1)(OCC)C(F)(F)F` (stereo not shown), for which the “hERG current change (%, negative = inhibition) at 1uM” value worked out at 17.4%.
For the compound `CCc1cc2cc(C)cc(C)c2nc1Cl`, the “hERG current change (%, negative = inhibition) at 1uM” value was 13.4%.
Turning to `C1CCN(c2nc3nonc3nc2N2CCCC2)C1`, the “hERG current change (%, negative = inhibition) at 1uM” value is reported as 14.4%.
Regarding `O=c1[nH][nH]cc1C=Nc1ccccc1O`, the “hERG current change (%, negative = inhibition) at 1uM” value is 14.5%.
Take `COc1ccc(Nc2ncc(C(=O)N3CCN(c4ccc(F)cc4)CC3)c3ccccc23)cc1`: the “hERG current change (%, negative = inhibition) at 1uM” value is recorded as 9.89%.
On to `Cc1cc(NC(=O)COc2cccc([N+](=O)[O-])c2)no1`, for which the “hERG current change (%, negative = inhibition) at 1uM” value turned out to be 13.6%.
Turning to `O=C(CN(Cc1cccs1)C(=O)CNS(=O)(=O)c1ccccc1)NC1CCCC1`, the “hERG current change (%, negative = inhibition) at 1uM” value is given as 8.05%.
Consider `O=S(=O)(c1ccc2c(c1)C(O)c1ccccc1CC2)C(F)(F)F` (stereo not shown), for which the “hERG current change (%, negative = inhibition) at 1uM” value worked out at 7.39%.
Regarding `COc1ccc(C(=O)Nc2cccc3ccccc23)cc1`, the “hERG current change (%, negative = inhibition) at 1uM” value came to 7.82%.
In the case of `Cc1cc(C)c(C)c(S(=O)(=O)N2CCC(C(=O)NC3=NCCS3)CC2)c1C`, the “hERG current change (%, negative = inhibition) at 1uM” value turned out to be 4.55%.
For `CCCn1cc(CN2CCC(n3nccc3NC(=O)c3ccc4c(c3)OCO4)CC2)c(C)n1`, the “hERG current change (%, negative = inhibition) at 1uM” value is on record as 10%.
The value for `CCOc1cc(Br)c(C(C)NC(=O)c2cccnc2)cc1OCC` (stereo not shown) was 0.331%; that for `CCCOC(=O)c1ccc(Oc2cn[nH]c2-c2ccc(OCC(=O)NN)cc2O)cc1` was 8.32%.
Take `Cc1cc(NS(=O)(=O)c2ccc(NC(=O)c3cc(-c4ccccc4Cl)nc4ccccc34)cc2)no1`: the “hERG current change (%, negative = inhibition) at 1uM” value was 2.9%.
On to `COc1ccc(Cl)cc1N(CC(=O)N/N=C/c1ccc(OC(C)C)cc1)S(=O)(=O)c1ccc(C)c([N+](=O)[O-])c1`, for which the “hERG current change (%, negative = inhibition) at 1uM” value is 11.1%.
For the compound `CCOc1ccc(N(C(C)C(=O)NC(C)CC)S(C)(=O)=O)cc1` (stereo not shown), the “hERG current change (%, negative = inhibition) at 1uM” value came to 13.5%.
As to `COCCN(C(=S)Nc1c(C)cccc1C)C(C)c1ccco1` (stereo not shown), the “hERG current change (%, negative = inhibition) at 1uM” value is listed as 12.9%.
As for `Cc1ccc(C)c(N(CC(=O)NCCSCc2ccco2)S(C)(=O)=O)c1`, the “hERG current change (%, negative = inhibition) at 1uM” value worked out at 7.62%.
The figure for `O=C(CSc1n[nH]c(=O)n1C1CC1)c1c[nH]c2ccccc12` is 9.49%.
The value for `Cc1noc(C)c1S(=O)(=O)N1CCC(C(N)=O)CC1` was 10%; that for `CSc1nnc(-c2cc(Br)ccc2N=Cc2c(C)[nH]n(-c3ccccc3)c2=O)c(=O)[nH]1` was 2.57%.
On to `C#CCNC(=O)/C=C/c1ccc(OC)cc1`, for which the “hERG current change (%, negative = inhibition) at 1uM” value is reported as 7.68%.
With `CCOC(=O)C1C(c2ccc(O)c(OC)c2)NC(=O)NC1(O)C(F)(F)F` (stereo not shown), the “hERG current change (%, negative = inhibition) at 1uM” value is recorded as 12.3%.
For `Cn1c(N)c(C(=O)COC(=O)C23CC4CC(CC(C4)C2)C3)c(=O)n(C)c1=O`, the “hERG current change (%, negative = inhibition) at 1uM” value stood at 7.15%.
For `CN(C)CCC(=O)NCC1OCCc2ccccc21` (stereo not shown), the “hERG current change (%, negative = inhibition) at 1uM” value amounted to 5.63%.
As for `COc1ccc(NC(=O)c2ccc(Cl)c(NC(=O)c3ccncc3)c2)cc1`, the “hERG current change (%, negative = inhibition) at 1uM” value is on record as 5.41%.
For the compound `COc1cccc(-n2c(C)cc(/C=C3\C(=N)N4N=C(CC(=O)N5CCOCC5)SC4=NC3=O)c2C)c1`, the “hERG current change (%, negative = inhibition) at 1uM” value is given as 2.93%.
As for `Cc1cccn2c(CN3CCSCC3)c(C(=O)N3CCOCC3)nc12`, the “hERG current change (%, negative = inhibition) at 1uM” value is on record as -1.36%.
In the case of `Cc1cc(F)ccc1NC(=O)C1CCN(C(=O)Nc2ccccc2)CC1`, the “hERG current change (%, negative = inhibition) at 1uM” value was determined as 9.12%.
The value for `O=C(NC(Cc1ccccc1)c1ccc2c(c1)OCCCO2)c1ccccc1F` (stereo not shown) was -9.55%; that for `COc1cc(/C=N/NC(=O)c2cc(-c3cccc(Br)c3)nc3ccccc23)cc(OC)c1O` was 14.5%.
The value for `COc1ccc(NC(=O)c2cccs2)cc1NC(=O)c1ccco1` was 5.06%; that for `C=CCOC(=O)c1[nH]c2c(c1C)C(=O)CC(c1cc(OC)c(OC)c(OC)c1)C2` (stereo not shown) was -19.4%.
In the case of `COc1cccc2c(=O)cc(C)n(CC(=O)Nc3cccc(C)c3)c12`, the “hERG current change (%, negative = inhibition) at 1uM” value is -6.13%.
`CCOc1ccc(/C=N/NC(=O)c2c(C)n(C)c3ccc(OC)cc23)cc1`: the “hERG current change (%, negative = inhibition) at 1uM” value is listed as 5.94%.
For the compound `Clc1cc2nc(-c3cccnc3Cl)[nH]c2cc1Cl`, the “hERG current change (%, negative = inhibition) at 1uM” value is 21%.
The figure for `COC(=O)c1ccc(CSc2ncnc3c2oc2ccccc23)o1` is -2.27%; for `Cc1ccc(Oc2ccc(NC(=O)c3ccco3)cc2)cc1` it is -0.0758%; for `O=Cc1c(-c2ccccc2)nc2ccccn12` it is 7.44%.
Take `COC(=O)C1NN=C(C(=O)c2ccc(Br)cc2)C1c1cccc(Br)c1` (stereo not shown): the “hERG current change (%, negative = inhibition) at 1uM” value turned out to be 7.02%.
As for `CCC(=O)N1CCc2cc(S(=O)(=O)N3CCN(C(=O)c4ccco4)CC3)ccc21`, the “hERG current change (%, negative = inhibition) at 1uM” value is given as 4.69%.
For the compound `CCOC(=O)c1ccc(N=c2sc(C(=O)OC)cc(=O)n2-c2ccc(C(=O)OCC)cc2)cc1`, the “hERG current change (%, negative = inhibition) at 1uM” value is recorded as 9.64%.
With `COc1ccccc1/C=N/NC(=O)CC(=O)Nc1ccc(Cl)c(Cl)c1`, the “hERG current change (%, negative = inhibition) at 1uM” value came to 6.07%.
Take `COc1c(/C=N/NC(=O)[C@H]2C[C@@H]2c2ccccc2)c(CCN(C)C(C)=O)cc2c1OCO2`: the “hERG current change (%, negative = inhibition) at 1uM” value came to 4.48%.
For the compound `O=c1[nH]c2cc(Cl)ccc2c(O)c1-c1cccc(Oc2ccccc2)c1`, the “hERG current change (%, negative = inhibition) at 1uM” value was 6.2%.
The figure for `COc1ccc(NC(=O)CSc2nc3c(c(=O)n(C)c(=O)n3C)n2C)c(OC)c1` is 13%.
Turning to `O=S(=O)([O-])CCC[n+]1c(SCCCS(=O)(=O)O)sc2ccc(Cl)cc21`, the “hERG current change (%, negative = inhibition) at 1uM” value is reported as 3.55%.
The figure for `CC(C)(C)c1ccc(OC(=O)Cn2c(C(F)(F)F)nc3ccccc32)cc1` is 4.35%; for `CCOc1cccc(/C(O)=C2/C(=O)C(=O)N(Cc3cccnc3)C2c2ccco2)c1` (stereo not shown) it is 1.86%; for `CCc1ccc(N2CC(C(=O)OCc3nc4ccsc4c(=O)[nH]3)CC2=O)cc1` (stereo not shown) it is 1.64%.
The figure for `CC1CCN(CCOc2ccccc2-c2ccccc2)CC1.O=C(O)C(=O)O` is -8.4%; for `O=S(=O)(Nc1ccc(-c2ccc(N3CCOCC3)nn2)cc1)c1cc(Cl)ccc1Cl` it is 4.11%.
Take `O=C(c1cccc(F)c1F)N1CCCC1`: the “hERG current change (%, negative = inhibition) at 1uM” value turned out to be 21.2%.
Take `Cc1sc2ncnc(N3CCN(S(=O)(=O)c4ccc(Br)cc4)CC3)c2c1C`: the “hERG current change (%, negative = inhibition) at 1uM” value was 5.06%.
The figure for `NC(=S)c1cc2cc(Br)ccc2oc1=O` is 12.4%; for `CCN1C(=O)/C(=C/c2nc3ccccc3c(=O)[nH]2)c2ccccc21` it is 10.5%; for `COC(=O)c1ccccc1NC(=O)c1noc2c1CCC2` it is 3.69%.
As to `CCOC(=O)c1ccc(S(=O)(=O)N2CCN(C(=O)C3CSC4(C)CCC(=O)N34)CC2)cc1` (stereo not shown), the “hERG current change (%, negative = inhibition) at 1uM” value turned out to be 5.77%.
For `O=C1OC(Cc2ccccn2)C(O)=C1C1=NCCCN1` (stereo not shown), the “hERG current change (%, negative = inhibition) at 1uM” value is -2.79%.
The value for `CCn1c(C(O)c2ccc(C)cc2)nc2ccccc21` (stereo not shown) was -1.37%.
On to `O=C(/C=C/c1ccccc1)OCCN=C1NS(=O)(=O)c2ccccc21`, for which the “hERG current change (%, negative = inhibition) at 1uM” value was 5.06%.
Regarding `CC(C)n1nnc2ccccc2c1=O`, the “hERG current change (%, negative = inhibition) at 1uM” value is 12.8%.
As to `O=C(O)C1CC(=O)N(C2CCCCC2)C1c1ccccc1` (stereo not shown), the “hERG current change (%, negative = inhibition) at 1uM” value is 11.1%.
Regarding `Cc1cc(C)cc(SCc2noc(C(=O)NCCN(C)C)c2C(=O)NCCN(C)C)c1`, the “hERG current change (%, negative = inhibition) at 1uM” value was 8.94%.
On to `Cc1cccc(-n2cc(-c3ccccc3)c3c(=O)[nH]cnc32)c1`, for which the “hERG current change (%, negative = inhibition) at 1uM” value is listed as 7.63%.
Take `O=C(COC(=O)c1ccc(Cl)nc1)NCc1ccc2c(c1)OCO2`: the “hERG current change (%, negative = inhibition) at 1uM” value is on record as 10.2%.
Take `O=C(c1cccs1)N1CCC(c2nc(-c3ccc(S(=O)(=O)N4CCOCC4)cc3)no2)CC1`: the “hERG current change (%, negative = inhibition) at 1uM” value was -40.3%.
As to `CO/N=C/NC(=O)NOCc1ccc(Cl)cc1Cl`, the “hERG current change (%, negative = inhibition) at 1uM” value is 6.43%.
Take `O=C(CCC(=O)c1cccs1)NCc1cccc(Cl)c1`: the “hERG current change (%, negative = inhibition) at 1uM” value came out at 7.01%.
Regarding `Cc1cc(/C=N/n2cnnc2)c(C)n1-c1ccc2ncccc2c1`, the “hERG current change (%, negative = inhibition) at 1uM” value is reported as -7.25%.
For `Cc1ccc(NC(=O)COC(=O)CCC2CCCC2)c(Br)c1`, the “hERG current change (%, negative = inhibition) at 1uM” value is listed as 16%.
The value for `COc1ccc(/C=C2\SC(=S)N(CCCC(=O)NC3CCCC3)C2=O)cc1OC` was 0.0267%; that for `Cc1cccc(OCCCSc2nc3ccccc3[nH]2)c1` was 7.86%.
Consider `CCOC(=O)N1CCN(C(=O)COc2ccc(S(=O)(=O)NC3CCCCC3)cc2C)CC1`, for which the “hERG current change (%, negative = inhibition) at 1uM” value is on record as -0.53%.
The figure for `CSCCC(NC(=O)COc1ccccc1)C(=O)O` (stereo not shown) is 9.67%; for `COc1ccc(N2C(=O)NC(=O)/C(=C\c3ccc([N+](=O)[O-])s3)C2=O)cc1` it is 14%.
Regarding `COc1ccc(C(=O)c2ccccc2)c(OCC(=O)NC2CC2)c1`, the “hERG current change (%, negative = inhibition) at 1uM” value was found to be 16.9%.
Consider `Cc1ccccc1NC(=O)CSCc1cc(=O)n2ccsc2n1`, for which the “hERG current change (%, negative = inhibition) at 1uM” value was 13.7%.
With `CC(NC(=O)COC(=O)CCNC(=O)c1ccco1)C12CC3CC(CC(C3)C1)C2` (stereo not shown), the “hERG current change (%, negative = inhibition) at 1uM” value is recorded as 6.68%.
The figure for `Cc1ccc(NCc2nnc(SCC(=O)c3ccccc3)o2)c(C)c1` is 14.9%; for `CC(=NCCc1c(C)[nH]c2ccc(OC(F)(F)F)cc12)C1=C(O)CC(c2ccccc2)CC1=O` (stereo not shown) it is 11.9%; for `Cc1cccc(N2CCN(Cc3cnc(Cl)s3)CC2C)c1` (stereo not shown) it is 5%.
For the compound `O=C(N/N=C/c1ccc(OC(=O)c2cccs2)cc1)c1ccccn1`, the “hERG current change (%, negative = inhibition) at 1uM” value is recorded as 8.31%.
The value for `C=CCNC(=S)Nc1ccc(C)cc1[N+](=O)[O-]` was 3.74%; that for `CC(C(=O)NC1(C#N)CCCCC1)N(C)CC(=O)Nc1ccc(Cl)c(Cl)c1` (stereo not shown) was 8.32%.
Turning to `COc1cc(/C=N\NC(=O)CC(=O)NCCc2ccccc2)ccc1O`, the “hERG current change (%, negative = inhibition) at 1uM” value was determined as 7.16%.

The values above are taken from paper PMC4336329 (PLoS ONE, 2015).
